Source: article PMC4336329 (PLoS ONE, 2015)
Out of some 310,000 compounds screened, about 14,000 (4.5%) showed an effect of 50% or more. Effects have a minus sign here. The list shows a part of the results.

target: human ether-à-go-go-related gene (hERG) potassium channel (human, UniProt Q12809); experiment: primary screen, population patch clamp on CHO cells stably expressing hERG
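Note: peak tail current of the secondary pulse compared with the same well before compound.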

Sequence of human ether-à-go-go-related gene (hERG) potassium channel (Q12809 whole entry, looked up): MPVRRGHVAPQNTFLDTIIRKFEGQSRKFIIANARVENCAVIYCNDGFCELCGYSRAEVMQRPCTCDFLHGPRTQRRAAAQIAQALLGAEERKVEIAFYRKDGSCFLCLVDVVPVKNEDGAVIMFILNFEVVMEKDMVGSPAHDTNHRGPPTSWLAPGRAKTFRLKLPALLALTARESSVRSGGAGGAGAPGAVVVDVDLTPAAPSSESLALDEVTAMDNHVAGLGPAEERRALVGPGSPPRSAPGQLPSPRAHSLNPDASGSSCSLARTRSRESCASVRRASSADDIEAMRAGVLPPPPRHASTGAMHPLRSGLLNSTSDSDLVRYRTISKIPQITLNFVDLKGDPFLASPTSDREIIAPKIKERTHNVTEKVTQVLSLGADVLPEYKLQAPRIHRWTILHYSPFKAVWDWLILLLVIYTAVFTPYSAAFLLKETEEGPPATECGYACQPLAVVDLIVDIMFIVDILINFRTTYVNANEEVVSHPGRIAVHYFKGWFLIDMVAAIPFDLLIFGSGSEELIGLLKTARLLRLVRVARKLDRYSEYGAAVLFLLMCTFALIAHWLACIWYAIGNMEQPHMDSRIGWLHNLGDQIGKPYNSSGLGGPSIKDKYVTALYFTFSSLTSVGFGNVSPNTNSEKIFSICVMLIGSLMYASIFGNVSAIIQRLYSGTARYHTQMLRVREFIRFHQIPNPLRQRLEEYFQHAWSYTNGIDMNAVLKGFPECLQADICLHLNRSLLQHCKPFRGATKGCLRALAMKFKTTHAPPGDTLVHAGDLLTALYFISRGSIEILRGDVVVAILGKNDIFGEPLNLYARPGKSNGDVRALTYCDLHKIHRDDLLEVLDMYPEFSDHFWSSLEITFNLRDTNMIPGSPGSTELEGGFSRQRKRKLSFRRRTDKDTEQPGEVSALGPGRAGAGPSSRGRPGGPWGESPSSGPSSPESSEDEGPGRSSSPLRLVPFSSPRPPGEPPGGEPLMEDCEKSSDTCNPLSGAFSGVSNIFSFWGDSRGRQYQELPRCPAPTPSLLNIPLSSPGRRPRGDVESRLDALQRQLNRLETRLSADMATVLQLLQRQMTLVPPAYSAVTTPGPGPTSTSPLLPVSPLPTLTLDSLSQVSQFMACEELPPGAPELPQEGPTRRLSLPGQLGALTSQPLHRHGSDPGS

| SMILES | hERG current change (%, negative = inhibition) at 10uM [%] |
| --- | --- |
| CC(OC(=O)Cc1ccccc1[N+](=O)[O-])C(=O)NC(=O)NC1CCCCC1 (centres unmarked) | -10.8 |
| CCOc1cnc(-c2ccc(Cl)cc2)o1 | 8.82 |
| CCN1CCCC1Cn1cnc2c([nH]c3ccc(OC)cc32)c1=O (centres unmarked) | -66.1 |
| O=C(CCS(=O)(=O)c1cccc2nonc12)NCc1ccc(Cl)cc1 | -22.5 |
| Cc1cccc(C)c1NC(=O)CNC(=O)C(C)N1CCN(c2cccc(Cl)c2)CC1 (centres unmarked) | -18.4 |
| COC(=O)c1ccc2c(=O)n(Cc3ccc(C(=O)NC4CCCC4)cc3)c(=S)[nH]c2c1 | -5.49 |
| COc1ccc(C(c2nnnn2CC2CCCO2)N2CCN(c3ccccc3)CC2)cc1 (centres unmarked) | -2.14 |
| COC(=O)c1cc(NC(=O)c2cccs2)ccc1N1CCOCC1 | -1.74 |
| COC(=O)NN=C1CCC(c2ccccc2)CC1 (centres unmarked) | 5.89 |
| O=C(COC(=O)c1ccc(Br)o1)NCCCc1ccccc1 | 2.15 |
| N/C(=N\OC(=O)c1ccco1)c1ccc(Br)cc1 | 2.19 |
| COc1cc(CN2CCSCC2)cc(OC)c1OC | -5.22 |
| O=C1c2ccccc2C(=O)N1Nc1ccccc1 | -2.11 |
| CCN(CC)S(=O)(=O)c1ccc(C)c(NC(=O)/C=C/c2cccs2)c1 | -6.14 |
| COc1cc(C2N(c3cccc(Cl)c3)C(=O)C3CCCN32)cc(OC)c1OC (centres unmarked) | -1.48 |
| CN1C2CCC1CC(NC(=O)CSc1ccc(Cl)cc1)C2 (centres unmarked) | -8.94 |
| COc1ccc(CNS(=O)(=O)c2ccc3c(c2)C(C)(C)C(=O)N3C)cc1 | 5.42 |
| CCOC(=O)N1CCN(Cc2nc(-c3ccc(C)cc3)no2)CC1 | -17.6 |
| Nc1ncnc2c1ncn2C1O[C@H](CO)[C@@H](O)[C@@H]1O (some centres unmarked) | -8.74 |

| SMILES | hERG current change (%, negative = inhibition) at 10uM [%] |
| --- | --- |
| Cc1c(Cl)cccc1NC(=O)CNc1ccccc1F | -3.99 |
| Cc1ccc(C(=O)Nc2nccs2)cc1S(=O)(=O)N1CCCCC1 | -10.2 |
| CC(C)CCNC(=O)C(Cc1ccccc1)NS(=O)(=O)c1ccc2c(c1)c(=O)n(C)c(=O)n2C (centres unmarked) | -17.9 |
| Clc1ccc(Cn2cc(/C=N/n3cnnc3)c3ccccc32)c(Cl)c1 | 12.7 |
| CCOC(=O)c1ccc(NC(=O)CN2C(=O)CN(C(C)=O)C2=S)cc1 | 2.08 |
| COc1ccc([C@@H]2[C@@H]3C(=O)N(C(C)(C)C)C(=O)[C@@H]3[C@]3(Cc4ccccc4)C(=O)N(c4cccc(Cl)c4)C(=O)N23)cc1 | 6.35 |
| S=C(NCc1ccccc1)N1CCc2ccccc2C1 | -1.63 |
| Cc1ccc(S(=O)(=O)N2CCCCC2)cc1NC(=O)COC(=O)C1(C)CC1(Cl)Cl (centres unmarked) | -26 |
| CC[C@H](C)NC(=O)CCCCCn1c(=S)[nH]c2c([nH]c3ccc(OC)cc32)c1=O | 71.9 |
| CCC(C)C(NC(N)=O)C(=O)NC1CCC(C)CC1 (centres unmarked) | -4.7 |
| O=C(COc1ccc(Cl)cc1Cl)Nc1ccccn1 | -2.68 |
| COc1ccc(N2CCN(c3nc(NCCO)nc(N4CCOCC4)n3)CC2)cc1 | -1.07 |
| Cc1ccc(COc2ccc(Br)cc2/C=N/O)cc1 | 4.32 |
| O=C(NNC1=NCCCCC1)c1cccc([N+](=O)[O-])c1 | 4.78 |
| CCCCC(CC)C1OCC(CN2CCCC2)O1 (centres unmarked) | 3.29 |
| CNC(=S)NNC(=O)c1cccn(Cc2cccc(Cl)c2)c1=O | -14.5 |
| O=C(Nc1nc(-c2ccccn2)cs1)c1ccc(-c2ccccc2F)o1 | 9.93 |
| O=C(CC1SC(=Nc2ccc(O)cc2)NC1=O)Nc1ccccc1 (centres unmarked) | 2.29 |
| O=C(NC1CCN(Cc2ccccc2)CC1)c1cccc(S(=O)(=O)Nc2ccc(Br)cc2)c1 | -59.7 |

| SMILES | hERG current change (%, negative = inhibition) at 10uM [%] |
| --- | --- |
| CCCOc1ccc2ccccc2c1/C=C1\SC(=O)NC1=O | 9.25 |
| Cc1ccc2c(c1)C(=O)C(=O)N2CCCOc1ccccc1C | -15.9 |
| CN(C)CCOC(=O)C12CC3CC(CC(C3)C1)C2.Cl | 10.5 |
| COC(=O)CN=C1OC(=O)N2C(=O)C3=C4[C@@H](C[C@H]5C(=O)N(c6ccccc6)C(=O)[C@H]5[C@H]4[C@@]12Cc1ccccc1)[C@H]1C(=O)N(c2ccccc2)C(=O)[C@H]1[C@H]3C | 4.25 |
| COc1ccc(CCn2c(O)c(C=NC3CC3)c(=O)[nH]c2=O)cc1OC | 8.67 |
| COCCN(C(=S)Nc1ccc(C)cc1)C(C)c1cccnc1 (centres unmarked) | -22.9 |
| NC(=O)CN1CCCC1=O | 3.5 |
| CCOC(=O)C1=C(C)N=C2SCCC(=O)N2C1c1ccc(C(=O)OC)cc1 (centres unmarked) | -11.8 |
| O=C(Nc1ccn(Cc2ccc(Cl)cc2)n1)c1ccccc1 | -33.1 |
| COc1ccc(N2CCN(C(=O)COc3ccc(Cl)cc3Cl)CC2)cc1 | -14.9 |
| CCOC(=O)c1c(C)[nH]c(C(=O)CN2CCOCC2)c1C | -11.4 |
| CC1CN(Cc2nc3ccccc3c(=O)[nH]2)CC(C)O1 (centres unmarked) | 16.6 |
| CC1CCN(c2c([N+](=O)[O-])c(=O)n(-c3ccccc3)c3ccccc23)CC1 | 7.21 |
| O=C(CN1C(=O)c2ccccc2S1(=O)=O)NC1CCCCC1 | 5.26 |
| CCC1OC23CCCCC2C(C#N)(C(=N)O3)C1(C#N)C#N (centres unmarked) | 14.9 |
| Cc1ccccc1OCc1nnc(SCC(=O)Nc2ccc3c(c2)OCO3)n1C | -2.99 |
| CC(=O)c1ccc(N(C(=O)CNC(=O)c2cccs2)C(C(=O)NCC2CCCO2)c2ccccc2)cc1 (centres unmarked) | 12.3 |
| COc1ccc(C(=O)NCS(=O)(=O)c2ccc(C)cc2)cc1 | -3.85 |
